Values marked as one replicate rest on one cluster of the flow cell; about a third of the high ones do not repeat.
Tested on: ATP
Test: switch fluorescence ratio, 500 uM ATP over buffer (Cy3 cluster intensity, sum of 5 cycles each) (fold (ratio)); higher = stronger signal-on switching upon ATP binding; sequences stand for … in TCGTCGGCAGCGTCAGATGTGTATAAGAGACAGTTTTTTTTTTTTTTTTTTTTTTTTT…TC
Settings: aptamer strand: ATP DNA aptamer (quencher-CACCTGGGGGAGTATTGCGGAGGAAGG + anchor), 100 nM annealed; ATP concentration: 500 uM; one replicate
In short: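 Cy3-labelled switching-strand clusters on a modified Illumina MiSeq flow-cell were annealed to 100 nM quencher-labelled ATP aptamer and imaged first in selection buffer, then after 15 min with 500 uM ATP at 22 °C. NaOH stripping and re-annealing separated each of five buffer/ATP cycles, and clusters outside 100-1000 RFU were excluded. The fluorescence ratio sums target-cycle Cy3 intensity over buffer-cycle Cy3 intensity per cluster and averages it per switch-domain sequence.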
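Note: ATP exposure 15 min at 22 °C before imaging.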

Sequence: ATTTGAGAAG
- switch fluorescence ratio: 1.01

Sequence: GGTCTCTGCG
- switch fluorescence ratio: 1.02

Sequence: CCACCAGTGG
- switch fluorescence ratio: 1.68

Sequence: TCAGGTCAT
- switch fluorescence ratio: 1.01

Sequence: AGGGAAGCTG
- switch fluorescence ratio: 0.841

Sequence: AGCCAGTCGG
- switch fluorescence ratio: 0.987

Sequence: GCCTAAGAAT
- switch fluorescence ratio: 0.938

Sequence: TTTTGGTCG
- switch fluorescence ratio: 1.05

Sequence: GCAGCATTA
- switch fluorescence ratio: 2.37

Sequence: GCCTTCCAAC
- switch fluorescence ratio: 3.22

Sequence: TATGGTGGAA
- switch fluorescence ratio: 1.01

Sequence: ACAAGACCTC
- switch fluorescence ratio: 0.974

Sequence: CTAGATCCCT
- switch fluorescence ratio: 1.01

Sequence: TTTAATACC
- switch fluorescence ratio: 1.03

Sequence: TGCTTTCCTG
- switch fluorescence ratio: 1.01

Sequence: TAAGGCTAGG
- switch fluorescence ratio: 1.02

Sequence: GTGCCTGTT
- switch fluorescence ratio: 1

Sequence: TCCTGCTTGG
- switch fluorescence ratio: 1

Sequence: ATCCCATTTC
- switch fluorescence ratio: 1.04

Sequence: ACGACGTTGC
- switch fluorescence ratio: 1.77

Sequence: TGATTCACTT
- switch fluorescence ratio: 1.02

Sequence: GTGGCGCCGA
- switch fluorescence ratio: 1.01

Sequence: CTTACTTATG
- switch fluorescence ratio: 1.01

Sequence: AACGAATGTC
- switch fluorescence ratio: 1.16

Sequence: ACAGTAGTCT
- switch fluorescence ratio: 1.02

Sequence: AGGCAGAGAA
- switch fluorescence ratio: 1.05

Sequence: TAATACTGCG
- switch fluorescence ratio: 1.01

Sequence: TCTGTGGCTT
- switch fluorescence ratio: 0.983

Sequence: TTCCGCGTCT
- switch fluorescence ratio: 1.09

Sequence: TTATTGTGAA
- switch fluorescence ratio: 1

Sequence: AAGACTAACC
- switch fluorescence ratio: 1.07

Sequence: AACATACGTG
- switch fluorescence ratio: 1.2

Sequence: ACACGGTACC
- switch fluorescence ratio: 1.49

Sequence: GGCTAGCCGT
- switch fluorescence ratio: 0.973

Sequence: CGAATACTTA
- switch fluorescence ratio: 1.07

Sequence: ATCTTCTGGG
- switch fluorescence ratio: 0.997

Sequence: TAGCTGGATC
- switch fluorescence ratio: 1.09

Sequence: CGGTTCTAAG
- switch fluorescence ratio: 1

Sequence: GTCGCATAGT
- switch fluorescence ratio: 1.05

Sequence: TGCTACAATA
- switch fluorescence ratio: 1.06

Sequence: AGGATCCCTG
- switch fluorescence ratio: 1

Sequence: TGACCACACT
- switch fluorescence ratio: 1.21

Sequence: TCGTGAGGAG
- switch fluorescence ratio: 0.963

Sequence: GGAGTGGGG
- switch fluorescence ratio: 1.01

Sequence: AATAAGATCA
- switch fluorescence ratio: 1

Sequence: GTTAATGGTG
- switch fluorescence ratio: 0.95

Sequence: GATTTAGATC
- switch fluorescence ratio: 0.988

Sequence: GCTCTTGTGA
- switch fluorescence ratio: 1.01

Sequence: GCGCATTCG
- switch fluorescence ratio: 1.05

Sequence: GAGGTAGTC
- switch fluorescence ratio: 1.03

Sequence: AGATCTGCTC
- switch fluorescence ratio: 0.963

Sequence: AAACTAGCAG
- switch fluorescence ratio: 1.04

Sequence: GGTTGAGCCC
- switch fluorescence ratio: 0.988

Sequence: TTTCTCGGGA
- switch fluorescence ratio: 1.05

Sequence: ACGGTAGTGT
- switch fluorescence ratio: 0.935

Sequence: TGGTGCTGAA
- switch fluorescence ratio: 1.01

Sequence: GTAAGTTGCC
- switch fluorescence ratio: 1.02

Sequence: ACTCCGGGTT
- switch fluorescence ratio: 2.18

Sequence: TGGGTTCCAT
- switch fluorescence ratio: 1.01

Sequence: ACTAAGTGAT
- switch fluorescence ratio: 1.03

Sequence: GTATACAAAC
- switch fluorescence ratio: 1

Sequence: TTTGCTATCC
- switch fluorescence ratio: 1.14

Sequence: CCATCGGGGT
- switch fluorescence ratio: 1.14

Sequence: AATCTTATGA
- switch fluorescence ratio: 0.981

Sequence: AATGGCCCCC
- switch fluorescence ratio: 1

Sequence: ATTAGTCCAC
- switch fluorescence ratio: 1.04

Sequence: AGTTGATTCA
- switch fluorescence ratio: 0.996

Sequence: CTGGGTGGT
- switch fluorescence ratio: 0.939

Sequence: GGTCGAAGTT
- switch fluorescence ratio: 1.03

Sequence: AGACACGGCT
- switch fluorescence ratio: 1.06

Sequence: GTTTGGGCCC
- switch fluorescence ratio: 0.981

Sequence: CATCCCCTAA
- switch fluorescence ratio: 1.17

Sequence: ACTAAAACAA
- switch fluorescence ratio: 1.07

Sequence: TATGACGGCA
- switch fluorescence ratio: 0.992

Sequence: ACCCTGTCGT
- switch fluorescence ratio: 0.985

Sequence: CTCAGAAGAA
- switch fluorescence ratio: 1

Sequence: ACCAGGGGGC
- switch fluorescence ratio: 0.881

Sequence: CTCGACGGGT
- switch fluorescence ratio: 0.99

Sequence: CCACTAAATA
- switch fluorescence ratio: 1.55

Sequence: CACGTGCCCG
- switch fluorescence ratio: 1.06

Sequence: CGTATGGATT
- switch fluorescence ratio: 1

Sequence: CCCGACTGCT
- switch fluorescence ratio: 1.16

Sequence: TTGGGACGAG
- switch fluorescence ratio: 1.01

Sequence: GGTACATATA
- switch fluorescence ratio: 1

Sequence: TCGACTCTTT
- switch fluorescence ratio: 1.06

Sequence: AGATACATAG
- switch fluorescence ratio: 1.04

Sequence: TTGCGTGGTC
- switch fluorescence ratio: 1.12

Sequence: AGCATGACAC
- switch fluorescence ratio: 1.3

Sequence: TAGGCCAGCG
- switch fluorescence ratio: 1

Sequence: ATCCCTTATT
- switch fluorescence ratio: 1.03

Sequence: TAGCTTTCTG
- switch fluorescence ratio: 0.994

Sequence: TAAGGGGTCT
- switch fluorescence ratio: 0.98

Sequence: ATGTCGAGTT
- switch fluorescence ratio: 1.04

Sequence: ATAAGGTGTG
- switch fluorescence ratio: 0.981

Sequence: AGGAATTGGT
- switch fluorescence ratio: 0.992

Sequence: GGTTATAA
- switch fluorescence ratio: 0.97

Sequence: CCTGTAAACA
- switch fluorescence ratio: 1.01

Sequence: TTCGGTACAG
- switch fluorescence ratio: 2.61

Sequence: ATGATTTGGA
- switch fluorescence ratio: 1.03

Sequence: TAAGTACACC
- switch fluorescence ratio: 1.27

Sequence: ATTTCGCACT
- switch fluorescence ratio: 1.15

Sequence: AGACGGAAGG
- switch fluorescence ratio: 1

Sequence: TTCAAACATA
- switch fluorescence ratio: 1.02

Sequence: CCATTTTAGA
- switch fluorescence ratio: 1.01

Sequence: AGGCGCTGGT
- switch fluorescence ratio: 0.984

Sequence: TATGGGTTCA
- switch fluorescence ratio: 0.984

Sequence: CCCTGGTATC
- switch fluorescence ratio: 1.12

Sequence: CACACCCCTC
- switch fluorescence ratio: 1.18

Sequence: GTTAGGGACT
- switch fluorescence ratio: 0.995

Sequence: AGGAAGTAGC
- switch fluorescence ratio: 1.03

Sequence: TCATTTTATG
- switch fluorescence ratio: 1.04

Sequence: CGTTAAATAT
- switch fluorescence ratio: 1.02

Sequence: TTGAGCCAGG
- switch fluorescence ratio: 1.11

Sequence: CTCTCTGTTT
- switch fluorescence ratio: 1.03

Sequence: TTGTATATCC
- switch fluorescence ratio: 1.01

Sequence: GTCCTGGCGT
- switch fluorescence ratio: 0.948

Sequence: GGTCCTAAGT
- switch fluorescence ratio: 0.994

Sequence: AAGATCTATG
- switch fluorescence ratio: 0.979

Sequence: AGTAATTCTA
- switch fluorescence ratio: 1

Sequence: GCTCGCCGCC
- switch fluorescence ratio: 1.09

Sequence: ACATAGGTCG
- switch fluorescence ratio: 1.11

Sequence: TAAGATTAAT
- switch fluorescence ratio: 0.998

Sequence: TACCATGGGG
- switch fluorescence ratio: 1.03

Sequence: ATACGAGTTT
- switch fluorescence ratio: 1.02

Sequence: TTGCCAAAAT
- switch fluorescence ratio: 0.986

Sequence: ACACATCAGC
- switch fluorescence ratio: 1.02

Sequence: AGATACGGGT
- switch fluorescence ratio: 1.03

Sequence: TAATTTAGGT
- switch fluorescence ratio: 1

Sequence: ACAGTAGGGC
- switch fluorescence ratio: 1

Sequence: GGACGGGTCT
- switch fluorescence ratio: 1.01

Sequence: CTTCCGTTGA
- switch fluorescence ratio: 1.45

Sequence: TCAATCAAGC
- switch fluorescence ratio: 1.03

Sequence: TTACCCCTCT
- switch fluorescence ratio: 1.08

Sequence: TTAGGCTGGA
- switch fluorescence ratio: 1.04

Sequence: TAGTCATCCT
- switch fluorescence ratio: 0.97

Sequence: ATGAGTTGG
- switch fluorescence ratio: 0.992

Sequence: AAGGATACGC
- switch fluorescence ratio: 0.971

Sequence: GCACATCAGG
- switch fluorescence ratio: 1.16

Sequence: CAGTCTCTCT
- switch fluorescence ratio: 0.953

Sequence: CAGGTTTCCC
- switch fluorescence ratio: 1.03

Sequence: CATAAGTGG
- switch fluorescence ratio: 1

Sequence: CGGTGGGGCC
- switch fluorescence ratio: 1.02

Sequence: AGAGGCACCA
- switch fluorescence ratio: 0.985

Sequence: GGGCTTCACG
- switch fluorescence ratio: 0.985

Sequence: CAGAGAGACG
- switch fluorescence ratio: 1.06

Sequence: ATCTCATATA
- switch fluorescence ratio: 1.03

Sequence: GAGTGACTTT
- switch fluorescence ratio: 1.04

Sequence: ATGCAGCGCT
- switch fluorescence ratio: 1.01

Sequence: GAGGTGTCGG
- switch fluorescence ratio: 0.956

Sequence: CGGGAGGGAT
- switch fluorescence ratio: 1.18

Sequence: GACGGGTGGG
- switch fluorescence ratio: 1.06

Sequence: TCAGGTAGAT
- switch fluorescence ratio: 1.03

Sequence: CCAGGTCCGA
- switch fluorescence ratio: 1.11

Sequence: CTCCCCCGAG
- switch fluorescence ratio: 4.42

Sequence: CACCGGCCGG
- switch fluorescence ratio: 0.974

Sequence: GAGTAGTCAA
- switch fluorescence ratio: 1.01

Sequence: ACTTAGGCA
- switch fluorescence ratio: 0.993
